Out of some 280,000 compounds screened, about 1,100 (0.39%) were called active. This list was built around the results that the source calls inconclusive (neither active nor inactive); the mix of calls is not that of the screen. Calls follow the shape of the dose curve; as a rule, active = well fitted inhibition curve with a large enough effect; inconclusive = small, poorly fitted or top-dose-only effect, or effect the other way; inactive = flat fitted curve, though single readings scatter. No potency is given beside an inconclusive call; the fits are too rough.
What follows are compounds tested against Microtubule-associated protein tau (Homo sapiens) (UniProt P10636) (assay: qHTS for Inhibitors of Tau Fibril Formation, Fluorescence Polarization). Settings: K18 P301L tau heparin fibrillization, Alexa594 FP, 6 h; series mostly up to 57.7 µM; activity, negative = inhibition: at the top concentration.
Sequence of UniProt P10636 (P10636 whole entry, looked up): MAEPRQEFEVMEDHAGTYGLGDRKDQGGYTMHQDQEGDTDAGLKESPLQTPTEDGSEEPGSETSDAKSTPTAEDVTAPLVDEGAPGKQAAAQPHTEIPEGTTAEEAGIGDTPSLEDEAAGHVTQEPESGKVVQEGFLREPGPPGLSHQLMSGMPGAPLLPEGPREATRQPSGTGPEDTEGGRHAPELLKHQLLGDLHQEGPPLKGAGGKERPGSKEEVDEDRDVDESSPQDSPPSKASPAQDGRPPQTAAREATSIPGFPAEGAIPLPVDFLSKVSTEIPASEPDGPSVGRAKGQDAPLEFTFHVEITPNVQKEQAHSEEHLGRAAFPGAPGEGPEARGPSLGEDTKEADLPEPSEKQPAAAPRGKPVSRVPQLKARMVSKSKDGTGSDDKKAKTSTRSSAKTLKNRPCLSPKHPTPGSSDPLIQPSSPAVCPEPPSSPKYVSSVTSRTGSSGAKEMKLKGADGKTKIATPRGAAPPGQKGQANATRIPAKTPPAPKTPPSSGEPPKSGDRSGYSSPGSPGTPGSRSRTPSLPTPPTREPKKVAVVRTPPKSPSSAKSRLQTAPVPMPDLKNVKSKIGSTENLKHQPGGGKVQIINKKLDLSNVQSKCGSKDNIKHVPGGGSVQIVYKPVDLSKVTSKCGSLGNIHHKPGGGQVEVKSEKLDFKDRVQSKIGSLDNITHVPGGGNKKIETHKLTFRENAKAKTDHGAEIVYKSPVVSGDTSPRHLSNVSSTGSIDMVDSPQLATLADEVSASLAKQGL
Outline: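 FP of Alexa 594-tau after heparin (20 uM) induction. Substrate: human K18 P301L, 15 uM unlabeled, 0.24 uM labeled. Buffer 100 mM sodium acetate pH 7. 6 hr, 37 C.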
% is scaled to controls: 0 for no effect and ±100 for the full control effect; potency is read from the fitted curve at half-maximal effect; tags tell the direction and shape of the fitted curve.
Also: nearly all actives have a fitted effect of over 55% in size.

SMILES	Potency	activity, negative = inhibition
Oc1c(/C=N/c2ncn[nH]2)ccc2ccccc12	inconclusive [inhibitor, partial curve]	–
CCn1c(/C=C/c2c[nH]c3ccccc23)nc2ccccc2c1=O	inconclusive [activator, full curve, poor fit]	–
Cc1ccc(N(CC(=O)O)S(=O)(=O)c2cccc3nonc23)cc1	inconclusive [inhibitor, partial curve]	–
COc1ccc(C(=O)Nc2cccc(-c3cn4ccsc4n3)c2)cc1OC	inconclusive [inhibitor, partial curve, poor fit]	–
Oc1ccc(-c2nnc(-c3ccccc3)c(-c3ccccc3)n2)cc1	inconclusive [inhibitor, partial curve]	–
Cc1ccccc1Cn1c(CN2CCC(C(=O)NCc3cccnc3)CC2)cc2ccccc21	–	inactive: -0.865%
O=S(=O)(c1ccc2c(c1)CCCN2)N1CCCC2CCCCC21 (stereo not drawn)	–	inactive: 18.6%
CN(C)/N=C/c1ccc(OS(=O)(=O)c2ccccc2)cc1	inconclusive [activator, full curve, poor fit]	–
CC(=O)c1ccc(NS(=O)(=O)c2ccc(C)cc2)cc1	inconclusive [inhibitor, partial curve, poor fit]	–
O=C(O)c1ccc2cc(-c3ccc(O)c(C45CC6CC(CC(C6)C4)C5)c3)ccc2c1	inconclusive [inhibitor, single point]	–
COc1ccc(NC(=O)c2ccc3c(c2)N(Cc2cccc(Cl)c2)C(=O)c2ccccc2S3=O)cc1Cl (stereo not drawn)	inconclusive [inhibitor, single point]	–
CCCC(=O)N(C1CC(C)C(C#N)(C#N)C1(C#N)C#N)N(C)C (stereo not drawn)	inconclusive [inhibitor, partial curve]	–
CCc1ccc(NC(=O)CCn2c(-c3ccc(OC)cc3)cc(C(C)=O)c2C)cc1	–	inactive: -4.62%
N#CC1=C(N)OC2=C(CCc3ccccc32)C1c1ccccc1 (stereo not drawn)	–	inactive: -12%
CC[C@@]12C=C(/C=C/c3ccccc3)[C@](CC)(C1)[C@H](c1ccccc1)CC2=O	inconclusive [inhibitor, full curve, poor fit]	–
Cc1cc(C)cc(NC(=O)CSc2nncn2-c2ccccn2)c1	inconclusive [inhibitor, partial curve]	–
O=C(Nc1ccc2nc(-c3cccs3)c(-c3cccs3)nc2c1)N1CCOCC1	inconclusive [inhibitor, partial curve]	–
COc1ccc([N+](=O)[O-])cc1NC(=O)Cc1ccccc1Cl	–	inactive: -9.23%
Cc1ccc(-c2nc3ccccc3[nH]2)cc1NC(=O)COc1ccccc1[N+](=O)[O-]	inconclusive [inhibitor, partial curve]	–
COc1cc2[nH]c(=O)n(C3CCCCC3)c(=O)c2cc1OC	–	inactive: 2.15%
COc1ccc(/C=N/NC(=O)c2cccc([N+](=O)[O-])c2)cc1OC(=O)c1ccccc1	–	inactive: -4.99%
COc1ccc(-c2c(C#N)c(SCC(=O)Nc3cccc(Cl)c3)nc(C)c2C(=O)Nc2ccccc2)cc1OC	inconclusive [inhibitor, partial curve]	–
CCc1ccccc1NC(=O)Cn1c(=O)n(Cc2ccco2)c(=O)c2ccccc21	inconclusive [inhibitor, single point]	–

SMILES	Potency	activity, negative = inhibition
COc1ccc(C(=O)OCC(=O)N2CCCC2=O)c(OC)c1	–	inactive: 0.49%
O=C(Nc1cccc(C(F)(F)F)c1)c1cc2c(s1)-c1ccccc1OC2	inconclusive [inhibitor, partial curve]	–
COc1ccc(CCNC(=O)Cc2c(C)c3cc4c(C(C)(C)C)coc4c(C)c3oc2=O)cc1OC	–	inactive: -1.74%
CC(C)c1ccc(C2Sc3ccccc3NC3=C2C(=O)c2ccccc23)cc1 (stereo not drawn)	inconclusive [inhibitor, partial curve]	–
CN(C(=S)Nc1ccc(SC(F)F)cc1)c1ccc(O)cc1	inconclusive [inhibitor, full curve]	–
CCSc1nnc(NC(=O)c2ccc3ccccc3n2)s1	–	inactive: 12.5%
O=C(NCc1ccc(Cl)cc1)c1cc2c(s1)-c1ccccc1SC2	inconclusive [inhibitor, partial curve, poor fit]	–
COc1ccc(-c2nc3c(c(SCC(=O)Nc4cccc(O)c4)n2)Cc2c(CO)cnc(C)c2O3)cc1	inconclusive [inhibitor, partial curve]	–
Cc1cc(-c2ccccc2)n(-c2cc(N/N=C/c3ccccc3O)ncn2)n1	inconclusive [inhibitor, full curve, poor fit]	–
Cc1cc(NS(=O)(=O)c2ccc3nc(-c4ccccc4)[nH]c3c2)ccc1Br	active: 7.94 µM	–
C=CCOc1ccc2ccccc2c1/C=N/O	–	inactive: -3.88%
Cc1ccc(C(=O)NC(=S)Nc2ccc(-c3cc4ccccc4oc3=O)cc2)c(C)c1	inconclusive [inhibitor, single point]	–
Cc1ccc(NC(=S)Nc2cccc3cnccc23)cc1	inconclusive [inhibitor, single point]	–
CCN1CCN(C(c2cccc(F)c2)c2c(O)cc(C)n(CCOC)c2=O)CC1 (stereo not drawn)	inconclusive [inhibitor, single point]	–
COc1ccc(CN(Cc2nc3ccccc3c(=O)[nH]2)C(=O)NC2CCCCC2)cc1	–	inactive: 8.51%
Cc1cccc(C)c1N1CCN(C(=O)Nc2ccc3c(c2)OCCO3)CC1	inconclusive [activator, single point]	–
O=S(=O)(c1ccc(Br)cc1)c1nnn2c1nc(NC1CCCCCC1)c1sccc12	inconclusive [inhibitor, partial curve, poor fit]	–
O=C(c1ccc(F)cc1)C(CN1CCOCC1)c1ccccc1 (stereo not drawn)	inconclusive [activator, partial curve]	–
COc1ccc(-c2cn3cccnc3n2)cc1NC(=O)c1c(F)cccc1F	inconclusive [activator, single point]	–
COc1ccc(NC(=O)N2CCCC(CCC(=O)N(C)CCc3ccccn3)C2)cc1 (stereo not drawn)	–	inactive: -0.772%
COc1ccc(N/N=C(/C(N)=O)C2=NC(C)(C)Cc3ccccc32)cc1	–	inactive: 15.4%
C=CC[n+]1c(-c2ccc(C)cc2)csc1NNC(=O)Nc1ccccc1	inconclusive [inhibitor, single point]	–
Cc1ccc(C(=O)Nc2ccc(Br)cc2)cc1S(=O)(=O)N1CCOCC1	inconclusive [inhibitor, single point]	–

SMILES	Potency	activity, negative = inhibition
CC(=O)c1cccc(NC(=O)Cn2c(=O)c(CNc3ccc(C)cc3)cc3cc4c(cc32)OCCO4)c1	inconclusive [activator, single point]	–
CC1CC(=O)NN=C1c1ccc(N(C)C)c([N+](=O)[O-])c1 (stereo not drawn)	–	inactive: 1.89%
Cc1ccc(CNC(=O)CSc2ncc(S(=O)(=O)c3ccc(Br)cc3)c(=O)[nH]2)cc1	–	inactive: 9.4%
COc1ccc(NC(=O)CSc2nc3c([nH]c4ccccc43)c(=O)n2C)cc1	inconclusive [inhibitor, partial curve]	–
COc1ccc(Nc2ncnc3c2cnn3-c2ccc(C)cc2C)cc1	inconclusive [activator, full curve, poor fit]	–
COc1cccc(CC(=O)Nc2ccc3nc(N4CCC(C)CC4)cc(C)c3c2)c1	inconclusive [activator, full curve, poor fit]	–
CCC(=O)Nc1cccc(-c2nnc(SCC(=O)c3ccccc3)n2C)c1	–	inactive: 5.68%
NNC(=S)Nc1c(F)cc(F)cc1Br	–	inactive: 8.02%
COC(=O)c1cc(C#N)c(SCc2ccccc2)nc1C	–	inactive: -10.1%
NCCCC[C@H](NC(=O)C1CCNCC1)c1nnc([C@@H](N)Cc2ccc(O)cc2)o1	inconclusive [inhibitor, single point]	–
CCC(C)(C(=O)NC1CCCC1)N(C(=O)c1ccccn1)c1ccccc1 (stereo not drawn)	inconclusive [inhibitor, single point]	–
COc1ccc(/C=C/c2nc(N)nc(-c3ccccc3O)n2)cc1OC	active: 20 µM	–
O=c1c2ccccc2nc2n1CC/C2=C\c1ccccc1[N+](=O)[O-]	inconclusive [inhibitor, single point]	–
CCCCNC(=O)CSc1nc2cc3c(cc2c(=O)n1CCCC(=O)NCc1ccc2c(c1)OCO2)OCO3	inconclusive [inhibitor, single point]	–
CCS(=O)(=O)Nc1cc(-c2cn3ccc(C)cc3n2)ccc1C	–	inactive: -0.751%
S=C1NCN(Cc2cccnc2)CN1c1cccc2ccccc12	–	inactive: 3%
N#Cc1sc2nc(-c3cccs3)cc(-c3ccccc3)c2c1N	inconclusive [inhibitor, partial curve, poor fit]	–
CCCC(Oc1ccc(Br)cc1)c1nc2c3cc(OC)c(OC)cc3nc(=S)n2[nH]1 (stereo not drawn)	inconclusive [inhibitor, single point]	–
Cc1ccc(CNc2ncnc3c2c(-c2ccccc2)cn3-c2cccc(Cl)c2)cc1	–	inactive: -8.66%
COC(=O)C(C(C)=O)C1=C/C(=N\S(=O)(=O)c2ccc(C)cc2)c2ccccc2C1=O (stereo not drawn)	inconclusive [inhibitor, single point]	–
Cc1onc(-c2cccc(Cl)c2Cl)c1C(=O)O/N=C(\N)c1ccc([N+](=O)[O-])o1	inconclusive [activator, partial curve]	–
CC[C@H](C)/C=C(C)/C=C/C1=CC2=CC(=O)[C@]3(C)OC(=O)[C@@H](C(C)=O)[C@@H]3C2=CO1	inconclusive [inhibitor, partial curve]	–
